Assay results as given in US20090291885A1 (Amgen, published 2009).

Molecular target: T1, human Kv1.3 channel (human)
T1 construct: whole, on cells; also called hKv1.3; HEK293/Kv1.3
Experiment: enzyme-immunoassay on fixed HEK 293 cells stably transfected with human Kv1.3

B1: Fc-L10-ShK[[…]] (Fc fusion)
chain: not shown
binding result: binds
